Test results from PubChem BioAssay AID1645882 (National Center for Advancing Translational Sciences (NCATS), 2021).
Screen size: about 16,000 compounds; about 120 (0.75%) were called active. Not shown: some 4% with an inconclusive outcome. Calls follow the shape of the dose curve; as a rule, active = well fitted inhibition curve with a large enough effect; inconclusive = small, poorly fitted or top-dose-only effect; inactive = no such curve, though single readings can be large or run the other way. The list shows a part of the results.

Target: Rap guanine nucleotide exchange factor 3 (Homo sapiens) (UniProt O95398)
Chain of UniProt O95398 (O95398 whole entry, looked up): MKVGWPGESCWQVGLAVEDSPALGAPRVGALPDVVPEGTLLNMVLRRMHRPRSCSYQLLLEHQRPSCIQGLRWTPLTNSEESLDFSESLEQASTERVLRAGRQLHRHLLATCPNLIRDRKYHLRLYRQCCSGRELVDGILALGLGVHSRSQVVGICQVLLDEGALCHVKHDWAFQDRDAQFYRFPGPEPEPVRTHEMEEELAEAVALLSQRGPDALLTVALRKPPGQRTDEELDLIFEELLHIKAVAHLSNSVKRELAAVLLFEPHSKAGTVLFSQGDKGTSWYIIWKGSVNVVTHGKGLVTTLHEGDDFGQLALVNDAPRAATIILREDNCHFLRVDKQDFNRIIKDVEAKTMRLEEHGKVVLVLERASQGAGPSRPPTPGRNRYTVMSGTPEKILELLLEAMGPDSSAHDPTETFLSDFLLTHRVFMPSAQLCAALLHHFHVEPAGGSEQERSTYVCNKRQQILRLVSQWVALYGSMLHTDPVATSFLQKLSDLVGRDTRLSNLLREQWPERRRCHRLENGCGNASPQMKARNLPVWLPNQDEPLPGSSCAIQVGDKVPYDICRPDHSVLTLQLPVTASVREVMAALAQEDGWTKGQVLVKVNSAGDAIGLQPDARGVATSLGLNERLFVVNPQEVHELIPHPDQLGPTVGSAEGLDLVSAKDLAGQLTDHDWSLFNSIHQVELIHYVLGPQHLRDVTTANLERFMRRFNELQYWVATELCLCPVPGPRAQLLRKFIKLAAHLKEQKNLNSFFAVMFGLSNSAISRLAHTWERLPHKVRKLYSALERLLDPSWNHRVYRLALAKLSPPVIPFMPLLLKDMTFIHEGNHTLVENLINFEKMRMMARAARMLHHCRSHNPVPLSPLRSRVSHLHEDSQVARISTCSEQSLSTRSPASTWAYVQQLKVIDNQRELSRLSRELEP
Experiment: Validation qHTS for antagonist of cAMP-regulated guanine nucleotide exchange factor 3 (EPAC1);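 also: plate controls were DMSO for no effect and ATA control for full effect; nearly all actives have a fitted effect of over 75% in size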
Details: EPAC1 Rap1B-BODIPY-GDP exchange, fluorescence; series mostly up to 150 µM; activity change, negative = inhibition: at the top concentration
Summary of the method: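 Nucleotide exchange followed as fluorescence loss when BODIPY-GDP leaves Rap1B (480 nm excitation, 540 nm emission), read at 5 min intervals over 30 min. Reaction: 100 nM EPAC1, 250 nM RAP1B-BODIPY-GDP, 50 uM GDP; ATA and DMSO define normalization.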

Activity change, negative = inhibition, inactive:
CC[C@H]1OC(=O)C[C@@H](O)[C@H](C)[C@@H](O[C@@H]2O[C@H](C)[C@@H](O)[C@H](N(C)C)[C@H]2O)[C@@H](CCN2C[C@H](C)C[C@H](C)C2)C[C@@H](C)C(=O)/C=C/C(C)=C/[C@@H]1CO[C@@H]1O[C@H](C)[C@@H](O)[C@@H](OC)[C@H]1OC 13.9%
O=C1Cc2c([nH]c3ccc(Br)cc23)-c2ccccc2N1
O=C(/C=C/c1ccccc1)c1cccs1 -5.39%
Cn1ncc(S(=O)(=O)Cc2ccccc2)c(Br)c1=O 20.7% [at 75.8 µM]
O=c1c(-c2ccccc2)nc2cnc(Oc3ccccc3)nc2n1C[C@H]1CCCO1 7.43%
Cc1nc2cc(NC(=O)[C@@H]3C[C@@H](Sc4ccccn4)CN3Cc3cccc(F)c3)ccc2s1 -8.1%
COc1ccccc1-c1ccc2ncnc(NC3CCNCC3)c2c1 9.31%
COc1ccc(CN2Cc3ccccc3OC(c3ccccc3OC)C2)cc1O (centres undefined) -10.4%
OC1(c2cccnc2)CCN(Cc2ccc3c(c2)CN(Cc2cccc(F)c2F)CCO3)CC1 13%
O=C(c1cccc(F)c1)N1CCC2(CC1)CCN(c1ccncc1)CC2 10.4%
COc1ccc2c(c1)c(CC(=O)N1CCOCC1)c(C)n2C(=O)c1ccc(Cl)cc1
CC(=O)N[C@@H](C(=O)O)C(C)(C)SN=O -0.696%
COc1cc(CN2CCC3(CCC(CNC(=O)c4ccco4)O3)CC2)ccc1O (centres undefined) 11%
COc1ccc2[nH]cc(CCNc3ncncc3-c3c(C)noc3C)c2c1 -4.56%
OC(c1cc(C(F)(F)F)nc2c(C(F)(F)F)cccc12)C1CCCCN1 (centres undefined) 9.85%
COc1cc(=O)n2c(c1C(=O)NCc1nonc1C)CCN(Cc1c[nH]c3ccccc13)CC2 14.4%
Cc1ccccc1-c1cc2c(c(OC3CCOC3)c1)OCCN(C(=O)Cn1cccn1)C2 (centres undefined) -13.3%
Fc1ccc(Nc2ncncc2-c2ccccc2C(F)(F)F)cc1 -6.63%
COC(=O)CC1C(C)(C)C2(O)OC34CC2C(=O)[C@@]1(C)C3CC[C@]1(C)C4=CC(=O)OC1c1ccoc1 (some centres undefined) 2.14%
O=C(c1cccc(F)c1)N1CCC[C@@]2(CCN(c3ncccn3)C2)C1 8.38%
Cc1ccc(C(=O)Nc2cnn(-c3ccc(C(=O)NCc4nc(-c5ccccc5)n[nH]4)cc3)c2)c(C)c1 -0.808%
CCN1CCN(C(=O)NC(C(=O)NC2C(=O)N3C2SC(C)(C)C3C(=O)O)c2ccccc2)C(=O)C1=O (centres undefined) 14.2%
C[C@@H]1C[C@H]2[C@@H]3C[C@H](F)C4=CC(=O)C=C[C@]4(C)[C@@]3(Cl)[C@@H](O)C[C@]2(C)[C@H]1C(=O)COC(=O)C(C)(C)C 4.11%
CN(C)c1ncc2ncc(=O)n(C3CC3)c2n1 -5.25%
CCNc1ncc2nc(-c3cccs3)c(=O)n(C)c2n1 21.9%
CN1CCN(c2cc(-c3ccoc3)ncn2)CC1 1.96%
NC[C@@H](O)c1ccc(O)c(O)c1 -27.2%
CC1(C)C[C@@H]1C(=O)N/C(=C\CCCCSC[C@H](N)C(=O)O)C(=O)O
Cc1cc(Cn2cnc3c2C[C@@H](C(=O)O)N(C(=O)C(c2ccccc2)c2ccccc2)C3)ccc1N 1.43% [at 75.8 µM]
COc1ccc(C(=O)N2CCC3(CCCN(Cc4ccc(C#N)cc4)C3)CC2)cc1 4.6%
COc1ccc(C(=O)N2CCC3(CC2)CCN(c2ccccc2)CC3)cc1 15.5%
COC(=O)/C=C/c1ccccc1S(=O)(=O)NC(C)C 2.89%
CCCCCCC(=O)OC1CC(C)(C)NC(C)(C)C1 -0.668% [at 75.8 µM]
O=C(/C=C/c1ccc2c(c1)OCO2)c1cccs1 -5.28%
O=C1c2ccccc2CC[C@H]1CNCCc1ccc(O)cc1 -7.03%
Oc1cc2c(cc1O)CN(C(=S)NCCc1ccc(Cl)cc1)CCC2
COCCn1c(=O)cnc2cnc(Oc3ccccc3)nc21 21.3%
CCCCCC(=O)O[C@]1(C(C)=O)CC[C@H]2[C@@H]3CCC4=CC(=O)CC[C@]4(C)[C@H]3CC[C@@]21C 11%
Cc1oc(-c2ccccc2NC(=O)c2ccccc2)nc1CNC(=O)c1cccc(-n2cccn2)c1 -0.137%
c1cncc(-c2nc(N3CCNCC3)c3ccccc3n2)c1 1.78%
O=C(Nc1cccc(F)c1)N1CCC2(CC1)CCN(S(=O)(=O)c1ccccc1)CC2 1.81%
COC(=O)C[C@H]1c2cc(F)ccc2S(=O)(=O)N1c1ccccc1 14.4%
O=c1[nH]c2cc(C(F)(F)F)ccc2n1-c1cc(C(F)(F)F)ccc1O
O=C(c1ccncc1)N1CCC2(CCN(Cc3nccs3)CC2)CC1 -0.658%
COc1ccc(-n2c(=O)c(-c3ccccc3)nc3cnc(N4CCOCC4)nc32)cc1 24.2%
O=c1cc(-c2ccccc2)oc2cc(O)c(O)c(O)c12 -28.8%
COc1ccc(-c2oc3cc(OC)ccc3c(=O)c2O)cc1 2.27%
CC(NC(=O)c1ccco1)c1nnc2n1CCN(Cc1ccc(Cl)cc1)CC2 (centres undefined) 3.32%
COc1ccc2c(c1)-c1nc(-n3ncc(C(=O)N(C)CC4CCCN(C)C4)c3C)ncc1CC2 (centres undefined) 5.46%
CC(C)CCCC(C)N (centres undefined) 17.2%
CNC(C)C1CC[C@H](N)[C@@H](OC2C(N)C[C@H](N)[C@@H](OC3OC[C@](C)(O)C(NC)[C@H]3O)C2O)O1 (some centres undefined) 34.4%
CC1CN(CC(=O)NCCC2COc3ccccc3O2)Cc2cc(Cl)ccc2O1 (centres undefined) -14.9%
CC(C)CCCC(C)C1CCC2C3C(=O)C=C4CC(O)CC[C@@]4(C)C3CC[C@@]12C (some centres undefined) 6.98%
CS(=O)(=O)N1CCC[C@@]2(CCN(c3ccccn3)C2)C1 13.1%
N[C@@H](CCCC(=O)O)C(=O)O -0.537% [at 75.8 µM]
CN(C)CCn1nnnc1SCC1=C(C(=O)O)N2C(=O)[C@@H](NC(=O)Cc3csc(N)n3)[C@H]2SC1 31.1% [at 75.8 µM]
Cc1c(CCO)sc[n+]1CCc1ccccc1 19.3%
CN(C)c1ncc2nc(-c3ccc(F)cc3)c(=O)n(C3CC3)c2n1 18.2%
CC(C)CCCC(C)C1CCC2C3CC[C@H]4CC(=O)CC[C@@]4(C)C3CC[C@@]12C (some centres undefined) 5.52%
C1=CC2C3C=CC(C3)C2C1 (centres undefined) 38.6% [at 320 µM]
Fc1ccc(/C=C/c2ccc3ccccc3n2)cc1 -21.8%
CCCCCCCCN1[C@@H](CC(=O)O)c2ccc(/C=C/C(=O)O)cc2S1(=O)=O -24.6%
COc1ccccc1C(=O)N(Cc1cc2cc3c(cc2nc1N(C)C)OCO3)CC1CCCO1 (centres undefined) -6.55%
CCOC(=O)C[C@H]1c2cc(F)ccc2S(=O)(=O)N1c1ccccc1 8.08%
O=c1cc(-c2ccccc2)[nH]c2nc(Cl)ccc12 -7.75% [at 75.8 µM]
O=c1[nH]c(=O)c2nc3ccccc3nc2[nH]1
N#Cc1cccc(NC(=O)N2CC[C@@]3(CCCN(C(=O)c4cc(C(F)(F)F)cc(C(F)(F)F)c4)C3)C2)c1 -15%
N#C/C(=C\c1ccc(O)c(O)c1)C(=O)NCCc1ccccc1 47.2% [at 75.8 µM]
CC(=O)O[C@H]1C[C@@]2(C)[C@@H](C[C@@H](O)[C@H]3[C@@]4(C)CC[C@@H](O)[C@@H](C)[C@@H]4CC[C@@]32C)/C1=C(\CCC=C(C)C)C(=O)O 6.92%
FC(F)(F)c1ccccc1-c1nc(NC2CC2)c2ccccc2n1 3.54%
CN(C)c1ncc2nc(CCc3ccccc3)c(=O)n(CCc3ccccc3)c2n1 6.79%
N#Cc1ccc(CN2CCCC3(CCN(C(=O)c4ccco4)CC3)C2)cc1 10.7%
COc1ccc(-c2nc3cc(C)ccc3cc2CN(C(=O)c2cccs2)C2CC2)cc1OC -12.6%
NCc1ccccc1Sc1ccccc1CO 14.7%
CS(=O)(=O)Nc1cccc(-c2nc(NCc3cccnc3)c3ccccc3n2)c1 11.9%
COc1ccc(C(=O)NCc2nc(-c3cccc(NC(=O)c4ccc(C)s4)c3)oc2C)cc1 0.361%
CC(=O)N[C@@H](CS)C(=O)O 0.615% [at 75.8 µM]
COCCNc1ncnc2ccc(-c3cccc(NS(C)(=O)=O)c3)cc12 8.47%
N[C@@H](Cc1cc(I)c(Oc2ccc(O)cc2)c(I)c1)C(=O)O -1.43%
O=C(O)CN(CC(=O)O)CC1=CC2C(=CC1=O)Oc1cc(O)c(CN(CC(=O)O)CC(=O)O)cc1C21OC(=O)c2ccccc21 (centres undefined) -140%
Nc1c(NC/C=C\COc2cc(CN3CCCCC3)ccn2)c(=O)c1=O 18.9%
CN1CCCC(CNC(=O)c2cnn(-c3nccc(-c4cccs4)n3)c2C2CC2)C1 (centres undefined) 11.3%
OC(c1cccnc1)c1ccc2c(c1)CN(Cc1cccc3c1OCO3)CCO2 (centres undefined) -11.6%
CCC1COCCS(=O)(=O)N1Cc1cccc(Cl)c1 (centres undefined) 1.01%
COc1ccc(CNc2ncncc2-c2ccoc2)c(OC)c1 -0.885%
O=C(c1ccco1)N1CCC2(CC1)CN(c1ncccn1)C2 9.76%
COc1cc(-c2cccc(OC)c2OC)cc2c1OCCN(Cc1cn[nH]c1-c1ccc(Cl)cc1)C2 -12%
COc1ccccc1-c1cncnc1NCCNC(C)=O -4.94%
O=C(Oc1ccccc1)N1CCC2(CCCN(c3ccccc3)C2)CC1 -4.1%
CN(Cc1ccco1)c1ccnc(-c2cccc(C#N)c2)n1 0.926%
NCCN 7.11%
C=CCSc1nnc(C2CCCN(Cc3ccccc3O)C2)n1C (centres undefined) -10.5%
COc1cccc(C2(CC(=O)N3CCCCC3CO)CC(=O)N(C)C2=O)c1 (centres undefined) 15.1%
COc1ccccc1-c1ccc(C(=O)N(C)CC2COCCO2)c(N2CCN(c3ccccc3F)CC2)n1 (centres undefined) -5.99%
CC(=O)N1CCC2(CC1)CN(c1ccccc1)C2 11.6%
CN(C)[C@@H]1C(=O)C(C(=O)NCN2CCCC2)=C(O)[C@@]2(O)C(=O)C3=C(O)c4c(O)cccc4[C@@](C)(O)C3C[C@@H]12 (some centres undefined) -3.33% [at 75.8 µM]
CO/N=C(/C(=O)N[C@@H]1C(=O)N2C(C(=O)[O-])=C(C[n+]3ccn4ncccc43)CS[C@H]12)c1nsc(N)n1
CN(C)C(=O)c1ccc(-c2cncnc2N(C)Cc2ccco2)cc1 1.46%
COc1ccc(NC(=O)N2CCCC3(CCN(S(C)(=O)=O)CC3)C2)cc1 6.43%
